Results: the supplement of paper PMC11417369
The list shows a part of the results.

test system: PfSIP2 AP2 domain 1 (GST-tagged); assay: gcPBM binding intensity (ln(normalized median fluorescence intensity)); higher = stronger DNA binding
Outline: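 Alexa488 anti-GST antibody, scanned at 488 nm, detected GST-tagged P. falciparum DNA-binding domains that had been expressed in E. coli and incubated for 1 h on an Agilent 4 × 180k array. The array carried primer-extended double-stranded 36-bp intergenic genomic probes and negative controls. Binding intensity is the highest Masliner-normalised natural-log median intensity across replicate spots of either orientation of each probe.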

| Sequence | gcPBM binding intensity (ln) |
| --- | --- |
| GTAATTAAAATATATACACACAAAGGCTATTAAATA [CACACA_site1011] | 6.96 |
| TATATAAAATATTAATGTACATATAAATATATATAT [XGTACX_site6656] | 8.55 |
| ATTTATGAAAGAAATAGTACACACATAAACATTTGT [XGTACX_site5862] | 6.88 |
| TTTAATACGAATGAGGCACACACCTAGTATACATGC [CACACA_site621] | 6.96 |
| CAAAATAATATATATACACACACACCGATATATATA [CACACA_site8082] | 7.58 |
| TTTAATTTTTTTAAAACACACAAATATATATATATA [CACACA_site3898] | 9.34 |
| TATATTTTAAAATTATGTACATATATAGATAAATGT [XGTACX_site1349] | 7.07 |
| ATATAAATATAGTGTGCACACACATAATATATATAT [CACACA_site8713] | 8.66 |
| ATATATATATATAATACACACATCATAAAATATGTA [CACACA_site2518] | 9.1 |
| AAAATAAATTGTGAAGGTACACAAATTATTATGTGG [XGTACX_site4196] | 6.92 |
| AAATACAAAATTGTTACACACATATTAATTATGACA [CACACA_site476] | 6.89 |
| TATCATCATGTATGTACACACATACAGATATTATGT [CACACA_site4888] | 7.04 |
| AATCATATTTAGATTACACACAGTTTAAATATTTTA [CACACA_site1263] | 6.75 |
| TATATATATATATATATATATATATATATAATATTA [XGTACX_negctrl_site558] | 9.75 |
| TATTTAAATGGATGCACACATGCATTAAATAAAATA [CACACA_site3433] | 8.43 |
| TGTAATGTTTACAACACACAAATTATAAATACAAAA [CACACA_site5047] | 6.89 |
| TCGATATATAGACACACACACTTTTAATAATTAAAT [CACACA_site7726] | 7.28 |
| TACAAACAGACATATACACACAAAAAAAAAATAAAA [CACACA_site2562] | 7.05 |
| TTATGCAGATAAAAGAGTACATATTCGTTACATACA [XGTACX_site2849] | 7.07 |
| TTAGTAAATACATTTGCACACATTATTTTTTAACAT [CACACA_site5448] | 7.17 |
| GGAAATATAAAATCATGTACATATGTATATATAATT [XGTACX_site5491] | 7.01 |
| TATATATTTTTTTCATGTACTTATTATATATATATA [XGTACX_site5321] | 8.81 |
| ATGAATATATATATTTGTACATATGTATATATATAT [XGTACX_site7527] | 9.19 |

| Sequence | gcPBM binding intensity (ln) |
| --- | --- |
| AGTATAGATGTATACACACACCAAACGTTAAAAAAA [CACACA_site7443] | 6.91 |
| ATTTATTTATTTATATGTACTTAAATGAAAGGAATA [XGTACX_site6024] | 7.52 |
| TTTCAAAATTTTTATTTTAAATAAACATTTATAAAA [CACACA_negctrl_site1588] | 6.9 |
| ACATACATTTTTAAATGTACATATATATATATATAT [XGTACX_site6751] | 9.01 |
| CCGATATAATGGAAAACACACAAAAGATATATATAT [CACACA_site2683] | 8.79 |
| ATATGGCACATATGTACACACGTATAGATAATATTA [CACACA_site5162] | 7.13 |
| AATATTATATGGACGTGTCCACATAAACCTATATAT [XGTACX_site2053] | 7.07 |
| CATTATGTTGTAAATACACACATACAGATACATACA [CACACA_site4565] | 7.1 |
| TAAAGGCAAACAAACACACACACATAAATACAGATA [CACACA_site5204] | 7.01 |
| ATATGCGTTTGCAAATGTACATATTATTTATATATA [XGTACX_site7128] | 7.11 |
| TTTTTTGGTTTTCATGCACACAATTTATAAATCTAT [CACACA_site3106] | 8.65 |
| ATAATTCTTTTACTGTGTACATATTATCACTTATTT [XGTACX_site2456] | 7.42 |
| TGTAATTGTTTAAAGGGTACATATATCAGATGTCTT [XGTACX_site5877] | 6.96 |
| TTTTGTTTTTGTAGAGTGCATAAAGAAGATATGTAT | 8.46 |
| TGGAAACAATGACACACACACAAAAAAAAAAAAAAA [CACACA_site7494] | 6.96 |
| ATAATAATATTTCTATGTACTTATTTTATGTATTAG [XGTACX_site1747] | 6.99 |
| TATAAATACTTAGAAACACACAAAAATATTTTATAA [CACACA_site7259] | 6.84 |
| AAAAATTAAAATATAACTAATTAATTTGTATTCATT [CACACA_negctrl_site1633] | 6.56 |
| GTAGGGGAAAAAAAAACACACAAAAAACAACAGATC [CACACA_site1187] | 7.26 |
| TTATCTCTACAAAGTGCACACACGTAAAAACATATA [CACACA_site3957] | 10.4 |
| TTTTTATATTTCAACATATCACAATTTTATATATCT [CACACA_negctrl_site178] | 7.04 |
| ATATATATATTATATGCACACTTATATTTCATTAGA [CACACA_site5439] | 8.27 |
| TATTTATAAATGAACACACACGCAATTTGAATCGAA [CACACA_site3371] | 7.32 |

| Sequence | gcPBM binding intensity (ln) |
| --- | --- |
| AACACATACAGATATGCACACATTTTATTCCATTAT [CACACA_site5565] | 7.45 |
| CTATATCATTTTCTAGCACACACATTGTTATTACCT [CACACA_site8204] | 7.13 |
| GAATATAAACCTATTACACACATCTATATGTACATT [CACACA_site1914] | 7.04 |
| TTTTTTATGCTAACTTCTTTTTCCTTATAAAATTGG [TGCATGCA_negctrl_site598] | 7.06 |
| ATTTTTTTTATTATTACACACATATAACAAAAAAAT [CACACA_site6934] | 7.32 |
| AAAAAGAAAAAATATATTCGTCTATTATAAACAATA [CACACA_negctrl_site648] | 6.64 |
| TAAATATTAACAATCGCACACATATTATTTTTCCAA [CACACA_site1626] | 6.97 |
| AAGGTAAACAGACACACACACATACAAAAAAAAAAA [CACACA_site3768] | 7.18 |
| GAATATATATTCATATGTACACAATTTATGTATTAT [XGTACX_site4719] | 7.06 |
| TAAATATATATATACACACACACCAAAGCAATAGAT [CACACA_site2940] | 7.19 |
| ATTAAATATGTCAAGTGTACAAAATGTAAAAAAAAA [XGTACX_site4119] | 7.07 |
| TTATATATACCTAAGACACACACATATATATATATA [CACACA_site8153] | 9.25 |
| GCCATTGTACCATCCACACACATATAAATATGTATA [CACACA_site7303] | 7.68 |
| TATGAAGAAAAGAATTGTACGATGTTTATTTTGTAT [XGTACX_site8614] | 6.96 |
| TGTTAATAGAAATACGTGCACACTAAAGGGAAAACA [CACACA_site1485] | 9.99 |
| TTGTTATCTACCTGTAGTACATATATTATGTAATAT [XGTACX_site735] | 7.03 |
| TATATAACATATAACACACATACTTAGTATTACATA [CACACA_site3099] | 7 |
| ACAGTATCAATATGGATAAAAATGTCCATATGCCTG [TGCATGCA_negctrl_site482] | 6.59 |
| TACGAAAAAAAAAAAAAAAAAAAAAAACACAAAAAA [CACACA_negctrl_site1643] | 6.8 |
| AATACCATAATCAATGCACACATAACAAAATATTAT [CACACA_site8873] | 7.38 |
| TTTTTATATTTTATAGTGCAAAAACTTACATAAAAT | 8.18 |
| ATATAATGGACCATAGTGCATAAAAATAACAAAAAA [GTGCAC_site9558] | 8.3 |
| TGGAAATATATATATATATATACATATATATATAGC [XGTACX_negctrl_site107] | 7.5 |

| Sequence | gcPBM binding intensity (ln) |
| --- | --- |
| TTTTAATATTTTAAGAGTACAGAAATATATAATATG [XGTACX_site4955] | 7.21 |
| ATTTTATAACATTCATGTACACATTTCATTTATTTG [XGTACX_site3028] | 7.26 |
| CATATAAATATATATACACACACACCGTAATACATA [CACACA_site9158] | 7.16 |
| AGAGACACTTTTTATTGTACAAGAGGAGGTTACCTT [XGTACX_site8768] | 6.61 |
| TTTTTTTTTAAATATACACACACATTTATACATATA [CACACA_site9122] | 6.96 |
| TTTGGAATATAATATTGTACATATTATATATATATA [XGTACX_site3187] | 8.71 |
| TTCTATTATGTGACTCAATTCTTCATGGGTGTATAA [TGCATGCA_negctrl_site140] | 7.18 |
| AATGTATTTATTTTTTGTACATATCGTGTGTGTATT [XGTACX_site1009] | 7.17 |
| TTATTTATTTTTATATGTACACAAAAAAAAAAAAAA [XGTACX_site1459] | 7.13 |
| AATATATATAACGTTGGTACACAAAAATTATTAAAT [XGTACX_site8572] | 7.32 |
| CCTCATCCACTATGCACACAAAAAAGAAATACACTA [CACACA_site3422] | 7.72 |
| TTTTTTTTTTTTTTAACACACATATATATATTTTTC [CACACA_site1922] | 6.9 |
| TAATGGATTATACGTGCACACATATATACAAATAAA [CACACA_site8116] | 10.5 |
| TTCTTCAATAATAAGTGTACATATGCATACATTATA [XGTACX_site1502] | 7 |
| ATAATAAAATAAGAAGCACACAAATATTATATATAA [CACACA_site9319] | 6.98 |
| AATTAAAAAATTTATGCACACTTTAAAAAAAAAAAA [CACACA_site5962] | 7.62 |
| ATATTAATTTCTTATGCATGTTCTACCAAATTGTAT [TGCATGCA_site38] | 6.97 |
| AAAAAAAATAAAAATAGTACTCAAAAAATTATGAAT [XGTACX_site3073] | 6.87 |
| GATATGATATGATATGCATGTAACAAATTTTTTTAA [TGCATGCA_site268] | 7.59 |
| AAAAAAAAATATATATATATATATATATTTATGTAT [GTGCAC_negctrl_site483] | 7.46 |
